Hit rate of the full screen: of about 110,000 compounds, about 230 (0.21%) showed an effect of 50% or more. Some of the results follow.
target: DPAP1 (Plasmodium falciparum, UniProt Q8IIJ9); experiment: primary screen, percent inhibition; read by cleavage of a fluorogenic dipeptide substrate; higher = more effect of the substance; parameters: species or system P. falciparum D10 trophozoite lysates; single well
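Also: 30 min substrate incubation versus DMSO and 10 µM JCP410 controls.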

Sequence of DPAP1 (Q8IIJ9 whole entry, looked up): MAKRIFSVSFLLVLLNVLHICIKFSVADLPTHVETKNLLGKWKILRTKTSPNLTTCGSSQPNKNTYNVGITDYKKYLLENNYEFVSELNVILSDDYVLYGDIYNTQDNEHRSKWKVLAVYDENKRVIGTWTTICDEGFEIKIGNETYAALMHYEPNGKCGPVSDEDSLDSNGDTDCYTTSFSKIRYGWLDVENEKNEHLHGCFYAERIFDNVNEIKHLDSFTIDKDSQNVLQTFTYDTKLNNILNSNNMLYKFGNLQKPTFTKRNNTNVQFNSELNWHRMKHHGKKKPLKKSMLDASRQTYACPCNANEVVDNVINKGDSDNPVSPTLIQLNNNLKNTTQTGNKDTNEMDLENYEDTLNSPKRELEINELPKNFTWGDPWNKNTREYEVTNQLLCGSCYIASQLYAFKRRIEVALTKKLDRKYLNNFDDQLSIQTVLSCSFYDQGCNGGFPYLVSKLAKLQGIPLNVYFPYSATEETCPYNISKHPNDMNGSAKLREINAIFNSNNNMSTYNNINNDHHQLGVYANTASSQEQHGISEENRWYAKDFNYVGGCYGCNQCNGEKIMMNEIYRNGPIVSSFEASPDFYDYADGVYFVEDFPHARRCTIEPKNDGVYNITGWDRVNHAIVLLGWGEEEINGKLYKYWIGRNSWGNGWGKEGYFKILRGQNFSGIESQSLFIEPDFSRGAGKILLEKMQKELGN

Row | SMILES | % Inhibition @ 10 uM [%]
1 | O=c1c2ccccc2n2c(-c3ccc(F)cc3)nnc2n1CCc1ccccc1 | -5.6
2 | CCCOC(=O)c1ccc(-n2nnnc2SCC(=O)N2CCOCC2)cc1 | 7.1
3 | Oc1nnc2ccc(N3CCOCC3)nn12 | -0.261
4 | COc1cc(/C=C2/SC(N3CCOCC3)=NC2=O)ccc1O | 0.673
5 | Cc1ccc(OCC(=O)Nc2cc(Cl)ccc2C)cc1 | -2.19
6 | COCc1cc(O)n2nc(Cc3ccccc3)c(-c3ccccc3)c2n1 | -2.2
7 | CC(CN1CCC(O)(c2ccc(Br)cc2)CC1)c1ccccc1 (stereo not shown) | -3.27
8 | Clc1ccc(CSc2nccn2Cc2ccccc2)cc1 | -7.55
9 | Cc1ccc(-c2c(CN3CCN(C)CC3)csc2C)cc1 | 0.124
10 | COCCNC(=O)c1cc(-c2ccc(OC)cc2)nc2ccccc12 | -3.94
11 | COc1ccc(Cc2nc3c4cnn(-c5ccccc5)c4ncn3n2)cc1 | -3.96
12 | CC(=O)N1CCN(CC/N=C/C2=C(O)CC(c3ccc(Cl)cc3)CC2=O)CC1 (stereo not shown) | -1.08
13 | Cc1c(C)n(C(=O)CN2CCN(c3ccccn3)CC2)c2ccccc12 | -1.72
14 | COc1ccc(CCCN=C(N)N)cc1Cl | -0.0369
15 | CC1=C(C(=O)Nc2ccc(F)cc2)C(c2cccc(Cl)c2Cl)n2nc(CCCO)nc2N1 (stereo not shown) | -9.02
16 | Cc1cc2oc(C(=O)NCc3ccc(S(N)(=O)=O)cc3)c(C)c2cc1C | 3.72
17 | CCOc1ccc(S(=O)(=O)/N=C2\C=CC(=O)C(Cl)=C2)cc1 | 13.3
18 | C=CCOC(=O)C1=C(C)OC(N)=C(C#N)C12C(=O)Nc1ccccc12 (stereo not shown) | -7.19
19 | CCC1CCC(N2CCN(C=O)CC2)CC1 (stereo not shown) | -1.41
20 | CCN(CC)CC(=O)c1csc2ccccc12 | 4.22
21 | CCc1nnc(NS(=O)(=O)c2ccc(NC(=O)c3ccco3)cc2)s1 | -5.56
22 | O=C(NCCN1CCC(Cc2ccccc2)CC1)C(Cc1ccccc1)N1Cc2ccccc2C1=O (stereo not shown) | 0.822
23 | CC1(C)COC(c2cc(C(C)(C)C)cs2)=N1 | 4.03
24 | C=CCNC(=O)Nc1ccc(Cl)cc1 | 4.8
25 | CC(=O)c1ccc(N2CCN(C(=O)N[C@@H](CC(C)C)C(=O)NCC#N)CC2)cc1 | -5.2

Row | SMILES | % Inhibition @ 10 uM [%]
26 | CC(c1ccccc1)n1cnc2c(oc3ccccc32)c1=O (stereo not shown) | -4.18
27 | CCN(CC)C(=O)C1CCCN(Cc2ccncc2)C1 (stereo not shown) | 0.472
28 | Cc1nc(N2CCC(C)CC2)c2c(C)c(C(=O)N(C)Cc3ccccc3)sc2n1 | -5.76
29 | COCCCNC(=O)c1oc2ccc3c(c2c1C)C=CC(C)(C)O3 | -2.88
30 | Cc1ccc(S(=O)(=O)N2CCC(C(=O)NCC3CCCO3)CC2)cc1 (stereo not shown) | -0.169
31 | CC(=O)c1ccc(NC(=O)C(CC(C)C)N2C(=O)c3ccccc3C2=O)cc1 (stereo not shown) | 3.53
32 | CCN(CC)CCNC1=NCCn2c1cc1cc(OC)ccc12 | -2.99
33 | O=c1oc2cc(O)ccc2cc1-c1nc2ccccc2s1 | 5.37
34 | COc1ccc(S(=O)(=O)N2CCC(c3nc4ccccc4s3)CC2)cc1 | -3.06
35 | CN(CCCNC(=O)Cn1nc(-c2ccccc2)ccc1=O)Cc1ccccc1 | 0.302
36 | COc1ccc(-c2c(C(C)=O)c(C)nc3sc4c(-n5nc(C)cc5C)ncnc4c23)cc1 | 2.95
37 | N#C/C(=C/c1ccc(-c2cc(Cl)ccc2Cl)o1)C(=O)O | -7.01
38 | CC1=CC(C)(C)N(C(=O)CSc2nc3ccccc3s2)c2ccccc21 | 1.24
39 | CC(C)N(Cc1nc(-c2ccc(Cl)cc2)no1)C(=O)CCC1CCCC1 | -1.24
40 | Cc1ccsc1C1C(C#N)=C(N)OC2=C1C(=O)CC(c1ccccc1)C2 (stereo not shown) | 1.96
41 | CCC(Cc1ccccc1)NC(=O)/C=C/c1ccccc1 (stereo not shown) | 1.54
42 | CCCCN(C)C(=O)C1CCN(c2nnc(C)c3c(C)n(-c4ccccc4)nc23)CC1 | -1.23
43 | CCOc1ccc(/C=C/C(=O)c2c(O)cc(C)oc2=O)cc1 | -0.546
44 | CCC1CCCCN1C(=O)Cn1c(SCc2ccc(C)cc2)nc2cccnc21 (stereo not shown) | 0.95
45 | NC(=O)c1cc2nc(-c3ccco3)cc(C(F)(F)F)n2n1 | -9.52
46 | COc1ccc(NC(=O)c2ccc(C(=O)c3c(C)cc(C)cc3C)cc2)cc1 | -7.87
47 | O=C(c1ccccc1)c1ccc2nc(Cl)c3nncn3c2c1 | -1.59
48 | COc1ccc(C(CC(=O)Nc2cc(C)on2)NC(=O)C(F)(F)F)cc1 (stereo not shown) | -5.36
49 | Cc1cccc(C(=O)Nc2nnc(SCc3cc(=O)n4ccsc4n3)s2)c1 | 4.11
50 | CCC(=O)Nc1nc(-c2ccccc2)nc(SC)c1C(C)=O | -3.64

Row | SMILES | % Inhibition @ 10 uM [%]
51 | COc1cc(CN2C(=O)c3c(C)nc4ccccc4c3C2=O)cc(OC)c1 | 0.505
52 | O=C(c1cc(S(=O)(=O)N2CCCC2)c[nH]1)N1CCC(Cc2ccccc2)CC1 | 8.41
53 | O=C(NCCN1CCCCCC1)C1CCC(CNS(=O)(=O)c2cccc3cccnc23)CC1 (stereo not shown) | -6.07
54 | COCCNC(=O)c1cn(C2CCCC2)c(=O)c2c1c1ccccc1n2C | -1.58
55 | COc1ccc(C)cc1N(CC(=O)N1CCc2ccccc2C1)S(=O)(=O)c1ccc(C)cc1 | 7.64
56 | COC(=O)C1=CNC=C(C(=O)OC)C1c1ccc(Cl)c(Cl)c1 | 4.66
57 | COc1ccc(-c2cc(C)no2)cc1S(=O)(=O)NCCN(Cc1ccco1)C1CCCC1 | 3.9
58 | Cc1ccc(NC(=O)Nc2ccccc2)cc1Cl | 1.08
59 | N#Cc1c(NC(=O)c2ccc(Cl)cc2Cl)sc2c1CCCC2 | 22.5
60 | Cc1c(C(=O)O)cc(-c2ccccc2)n1C | 1.94
61 | Fc1cccc(CCNCc2c[nH]c3ccccc23)c1 | -1.5
62 | O=S(=O)(Cc1ccccc1)N1CCC(c2nc3ccccc3s2)CC1 | 0.401
63 | CC(NC(=O)c1ccccc1NS(=O)(=O)c1ccc(F)cc1)c1ccccc1 (stereo not shown) | -0.473
64 | O=C(c1[nH]nc2c1CCCC2)n1ccnc1 | 0.738
65 | OCCN1CCN(Cc2cc(Br)cs2)CC1 | -6.27
66 | COc1ccc(C(=O)Nc2ccc(Cc3ccncc3)cc2)cc1OC | 1.94
67 | COc1ccc(-c2ccc3c(N)c(C(=O)Nc4cccc(F)c4)sc3n2)cc1 | -6.39
68 | CCOc1ccc(C(=O)Nc2cc(C)on2)cc1 | 4.3
69 | CC1CCc2c(sc(NC(=O)CCC(=O)O)c2C(N)=O)C1 (stereo not shown) | -2.09
70 | Cc1ccc(Cn2c(=O)[nH]c3ncccc3c2=O)cc1 | -3.44
71 | O=C1NC(=O)N(c2ccccc2)C(=O)/C1=C\Nc1ccc(C(=O)N2CCOCC2)cc1 | -4.76
72 | COc1cc(C(=O)NC(C)c2nc3ccccc3[nH]2)cc(OC)c1OC (stereo not shown) | -2.74
73 | COc1ccc(S(=O)(=O)Nc2ccc(NC(C)=O)cc2)cc1C | -1.55
74 | CC(=O)Nc1ccc(NC(=O)CNS(=O)(=O)c2ccc(F)cc2)cc1 | 1.15
75 | O=C(NCc1ccco1)c1cc2cc(Cl)cc(Cl)c2oc1=O | 4.32

Row | SMILES | % Inhibition @ 10 uM [%]
76 | O=C1c2oc3ccc(F)cc3c(=O)c2C(c2ccc(O)cc2)N1CCCN1CCOCC1 (stereo not shown) | -6.71
77 | O=c1oc(-c2ccccc2F)nc2c1cnn2-c1ccccc1 | 3.44
78 | O=C(Cn1nc(-c2ccccc2)nc1-c1ccccc1)Nc1ccc(Br)cc1 | -2.18
79 | CN1CCN(Cc2nc3c(c(=O)[nH]c(=O)n3C)n2Cc2c(F)cccc2Cl)CC1 | 5.09
80 | CC(CNC(=O)CCc1nc2cccnc2n1Cc1cccs1)c1ccccc1 (stereo not shown) | 1.62
81 | CC1CCCC(NC(=O)Cn2nc(Cc3ccncc3)c3ccccc3c2=O)C1C (stereo not shown) | -6.52
82 | COc1ccc(Oc2c(C(F)(F)F)oc3cc(OCC(=O)NC4CCCCC4)ccc3c2=O)cc1 | -7.45
83 | CCOC(=O)C1=C(CS(=O)(=O)c2ccc(F)c(C)c2)NC(=O)NC1c1ccc(O)c(O)c1 (stereo not shown) | -0.644
84 | Cc1ccc(C(=O)N2CCC(c3nc(-c4ccc(S(=O)(=O)N5CCCC5)cc4)no3)CC2)cc1 | -1.31
85 | Cc1c(-c2nsc(NC(=O)c3cccc(F)c3)n2)nnn1-c1ccccc1C(F)(F)F | -1.2
86 | C=CCOc1ccccc1CN(CCN(C)C)Cc1ccccc1 | -5.49
87 | CCC1CCc2c(sc(NC(C)=O)c2C#N)C1 (stereo not shown) | -5.48
88 | C1=CCC(CN2CCN(c3ncccn3)CC2)CC1 (stereo not shown) | -5.65
89 | O=C(CN1C(=O)c2ccccc2S1(=O)=O)Nc1ccc(Cl)c(C(F)(F)F)c1 | 6.24
90 | Cc1cc(=O)oc2cc3c(cc12)OCCO3 | 2.59
91 | COc1ccccc1-n1nnc(-c2nsc(NC(=O)c3cccc(F)c3)n2)c1C | 0.411
92 | CCOCCCNC(=O)/C(C#N)=C/c1c(Oc2ccc(C)cc2)nc2c(C)cccn2c1=O | -5.1
93 | COC(=O)C1=C(C)N(C)C(=O)NC1c1cc(F)ccc1F (stereo not shown) | -3.04
94 | CCN(CC)c1ccc(Nc2nc(-c3c(C)nc4ccccn34)cs2)cc1 | 3.65
95 | COc1ccc(C(=O)Cn2nnc3sc4c(c3c2=O)CCCC4)c(OC)c1 | -2.71
96 | O=C(CCN1C(=O)C2CCCCC2C1=O)N1CCc2ccccc2C1 (stereo not shown) | 6.22
97 | CCN1CCN(C(=O)c2ccc(-c3nc(COc4ccc(C)cc4)c(C)o3)cc2)CC1 | -4.78
98 | N#CC1=C(N)Oc2c(c(O)nc3ccccc23)C1c1ccccc1Cl (stereo not shown) | 1.76
99 | CCCN1C(=O)c2[nH]nc(-c3cc(C)ccc3O)c2C1c1ccc(OCC)c(OC)c1 (stereo not shown) | 0.558
100 | Cc1nc2ccccc2c2oc(C(=O)N3CCC(C)CC3)cc12 | -5.25
